Measurements: patent US20170368082A1, “FORMULATIONS OF BRINCIDOFOVIR” (priority 2016, published 2017)
Further values from the same series stand in other lists.

Assay: Tissue distribution by quantitative whole-body autoradiography (QWBA)
Type: in vivo, male Sprague Dawley and Long-Evans rats
Conditions: LE rat, 2 mg/kg IV
Method: The study utilized 4 groups of male SD rats (albino), and 3 groups of male LE rats (pigmented); a total of 39 rats. All animals were obtained from Hilltop Lab Animals, Inc. (Scottdale, Pa.). […] Rats in Group 5 were administered a single 2-h IV infusion of [^14C]brincidofovir at a target dose of 2 mg/kg. […] Three dosing formulations (one for high dose IV, one for low dose IV, and one for PO dose) were prepared at QPS on the day of dosing. The IV formulation for Groups 1, 2, 3, and 4 contained a vehicle of 10 mM sodium phosphate buffer in 5% dextrose solution at pH 8.0(±0.1).
Each animal, at their respective termination time points, was euthanized for QWBA analysis immediately after blood collection. One rat per time point per Group was euthanized as listed below.
The blood samples were maintained on wet ice (approximately 4° C.) and then centrifuged to obtain plasma within 1 h of the blood collection time. Centrifuge settings were recorded in the study notebook. Duplicate aliquots of plasma (0.050 mL) were analyzed for radioactivity using direct counting by LSC, and residual plasma was stored at approximately −70° C. and was saved for possible future analysis under a separate study protocol. Residual red blood cells were discarded as radioactive waste.
The pinna, distal limbs, hair, and tail were removed from each frozen carcass and each frozen carcass was embedded in an aqueous suspension of approximately 2% (w/v) carboxymethylcellulose and frozen into a block. The blocks were stored at approximately −20° C. prior to sectioning. Each blocked carcass was mounted on the object stage of a cryomicrotome (Leica CM3600 Cryomacrocut, Nussloch, Germany and Vibratome 9800, St. Louis, Mo.) maintained at approximately −20° C. and internal standards (3), which were plasma fortified with [^14C]-glucose at one concentration (approximately 0.05 μCi/mL), were placed into the frozen blocks, prior to sectioning, and were used for section thickness quality control. A number of whole-body sections (approximately 40 μm thick) were taken in the sagittal plane at various levels of interest using a whole-body cryomicrotome set at −20° C. Sagittal sections (20-50 μm thick) of frozen carcasses were exposed to phosphor imaging plates. Regions of images in tissues were converted to concentrations using standards. All of the major tissues, organs, and biological fluids were represented.
Tissue concentration data was determined for the following tissues and/or contents: adipose (brown and white), adrenal gland, bile (in duct), blood (cardiac), bone, bone marrow, brain (cerebrum, cerebellum, medulla), cecum (and contents), large intestine (and contents), epididymis, esophagus, eye (uvea and lens), Harderian gland, heart, kidney (cortex and medulla), liver, lung, lymph node, pancreas, pituitary gland, prostate gland, salivary gland, seminal vesicles, skeletal muscle, skin (pigmented and non-pigmented), small intestine (and contents), stomach (gastric mucosa and contents), spleen, spinal cord, testis, thymus, thyroid, and urinary bladder (and contents).
The imaging plate and sections were placed in light-tight exposure cassettes, in a copper-lined lead safe, for a 4-day exposure at room temperature. […] Quantification was performed by image densitometry using MCD image analysis software (v. 7.0, Interfocus Imaging Ltd) and a standard curve constructed from the integrated response [i.e., Molecular Dynamics Counts per square millimeter (MDC/mm^2)] and the nominal concentrations of the ^14C-calibration standards. The concentrations of radioactivity were expressed as the μg equivalents of [^14C]brincidofovir per gram sample (μg equiv/g). A lower limit of quantification (LLOQ) was applied to the data (See section 6.7.4).
Tissue concentrations that fell below the LLOQ were identified as being below the quantification limit (BQL). Tissue areas that were not visualized on autoradiographic images were identified as no sample (NS) and reported as BQL.

## CCCCCCCCCCCCCCCCOCCCOP(=O)(O)CO[C@H](CO)Cn1ccc(N)nc1=O [[^14C] brincidofovir]
Liver, 24 h
  Concentration of radioactivity: 4.037 μg equiv/g tissue
Liver, 72 h
  Concentration of radioactivity: 1.393 μg equiv/g tissue
Lung, 2 h
  Concentration of radioactivity: 0.997 μg equiv/g tissue
Lung, 8 h
  Concentration of radioactivity: 0.283 μg equiv/g tissue
Lung, 24 h
  Concentration of radioactivity: 0.195 μg equiv/g tissue
Lung, 72 h
  Concentration of radioactivity: 0.115 μg equiv/g tissue
Lymph Node, 2 h
  Concentration of radioactivity: 0.453 μg equiv/g tissue
Lymph Node, 8 h
  Concentration of radioactivity: 0.219 μg equiv/g tissue
Lymph Node, 24 h
  Concentration of radioactivity: 0.149 μg equiv/g tissue
Lymph Node, 72 h
  Concentration of radioactivity: 0.085 μg equiv/g tissue
Pancreas, 2 h
  Concentration of radioactivity: 0.406 μg equiv/g tissue
Pancreas, 8 h
  Concentration of radioactivity: 0.089 μg equiv/g tissue
Pancreas, 24 h
  Concentration of radioactivity: 0.052 μg equiv/g tissue
Pancreas, 72 h
  Concentration of radioactivity: 0.022 μg equiv/g tissue
Pituitary Gland, 2 h
  Concentration of radioactivity: 0.899 μg equiv/g tissue
Pituitary Gland, 8 h
  Concentration of radioactivity: 0.367 μg equiv/g tissue
Pituitary Gland, 24 h
  Concentration of radioactivity: 0.089 μg equiv/g tissue
Pituitary Gland, 72 h
  Concentration of radioactivity: 0.055 μg equiv/g tissue
Plasma (by LSC), 2 h
  Concentration of radioactivity: 0.863 μg equiv/g tissue
Plasma (by LSC), 8 h
  Concentration of radioactivity: 0.173 μg equiv/g tissue
Plasma (by LSC), 24 h
  Concentration of radioactivity: 0.029 μg equiv/g tissue
Plasma (by LSC), 72 h
  Concentration of radioactivity: 0.008 μg equiv/g tissue
Prostate Gland, 2 h
  Concentration of radioactivity: 0.166 μg equiv/g tissue
Prostate Gland, 8 h
  Concentration of radioactivity: 0.039 μg equiv/g tissue
Prostate Gland, 24 h
  Concentration of radioactivity: 0.035 μg equiv/g tissue
Prostate Gland, 72 h
  Concentration of radioactivity: 0.015 μg equiv/g tissue
Salivary Gland, 2 h
  Concentration of radioactivity: 0.494 μg equiv/g tissue
Salivary Gland, 8 h
  Concentration of radioactivity: 0.111 μg equiv/g tissue
Salivary Gland, 24 h
  Concentration of radioactivity: 0.071 μg equiv/g tissue
Salivary Gland, 72 h
  Concentration of radioactivity: 0.030 μg equiv/g tissue
Seminal Vesicles, 2 h
  Concentration of radioactivity: 0.364 μg equiv/g tissue
Seminal Vesicles, 8 h
  Concentration of radioactivity: 0.304 μg equiv/g tissue
Seminal Vesicles, 24 h
  Concentration of radioactivity: 0.327 μg equiv/g tissue
Seminal Vesicles, 72 h
  Concentration of radioactivity: 0.172 μg equiv/g tissue
Skeletal Muscle, 2 h
  Concentration of radioactivity: 0.167 μg equiv/g tissue
Skeletal Muscle, 8 h
  Concentration of radioactivity: 0.023 μg equiv/g tissue
Skeletal Muscle, 24 h
  Concentration of radioactivity: 0.017 μg equiv/g tissue
Skeletal Muscle, 72 h
  Concentration of radioactivity: 0.007 μg equiv/g tissue
Skin (non-pigmented), 2 h
  Concentration of radioactivity: 0.288 μg equiv/g tissue
Skin (non-pigmented), 8 h
  Concentration of radioactivity: 0.268 μg equiv/g tissue
Skin (non-pigmented), 24 h
  Concentration of radioactivity: 0.108 μg equiv/g tissue
Skin (non-pigmented), 72 h
  Concentration of radioactivity: 0.068 μg equiv/g tissue
Skin (pigmented), 2 h
  Concentration of radioactivity: 0.460 μg equiv/g tissue
Skin (pigmented), 8 h
  Concentration of radioactivity: 0.186 μg equiv/g tissue
Skin (pigmented), 24 h
  Concentration of radioactivity: 0.116 μg equiv/g tissue
Skin (pigmented), 72 h
  Concentration of radioactivity: 0.047 μg equiv/g tissue
Small Intestine (contents), 2 h
  Concentration of radioactivity: 63.303 μg equiv/g tissue
Small Intestine (contents), 8 h
  Concentration of radioactivity: 1.982 μg equiv/g tissue
Small Intestine (contents), 24 h
  Concentration of radioactivity: 0.207 μg equiv/g tissue
Small Intestine (contents), 72 h
  Concentration of radioactivity: 0.032 μg equiv/g tissue
Small Intestine, 2 h
  Concentration of radioactivity: 1.710 μg equiv/g tissue
Small Intestine, 8 h
  Concentration of radioactivity: 2.462 μg equiv/g tissue
Small Intestine, 24 h
  Concentration of radioactivity: 0.704 μg equiv/g tissue
Small Intestine, 72 h
  Concentration of radioactivity: 0.076 μg equiv/g tissue
Spinal Cord, 2 h
  Concentration of radioactivity: 0.151 μg equiv/g tissue
Spinal Cord, 8 h
  Concentration of radioactivity: 0.024 μg equiv/g tissue
Spinal Cord, 24 h
  Concentration of radioactivity: 0.011 μg equiv/g tissue
Spinal Cord, 72 h
  Concentration of radioactivity: 0.006 μg equiv/g tissue
Spleen, 2 h
  Concentration of radioactivity: 0.821 μg equiv/g tissue
Spleen, 8 h
  Concentration of radioactivity: 0.561 μg equiv/g tissue
Spleen, 24 h
  Concentration of radioactivity: 0.358 μg equiv/g tissue
Spleen, 72 h
  Concentration of radioactivity: 0.284 μg equiv/g tissue
Stomach (contents), 2 h
  Concentration of radioactivity: 0.014 μg equiv/g tissue
Stomach (contents), 8 h
  Concentration of radioactivity: 0.051 μg equiv/g tissue
Stomach (contents), 24 h
  Concentration of radioactivity: 0.006 μg equiv/g tissue
Stomach (contents), 72 h
  Concentration of radioactivity: 0.008 μg equiv/g tissue
Stomach (gastric mucosa), 2 h
  Concentration of radioactivity: 0.553 μg equiv/g tissue
Stomach (gastric mucosa), 8 h
  Concentration of radioactivity: 0.122 μg equiv/g tissue
Stomach (gastric mucosa), 24 h
  Concentration of radioactivity: 0.077 μg equiv/g tissue
Stomach (gastric mucosa), 72 h
  Concentration of radioactivity: 0.031 μg equiv/g tissue
Testis, 2 h
  Concentration of radioactivity: 0.231 μg equiv/g tissue
Testis, 8 h
  Concentration of radioactivity: 0.091 μg equiv/g tissue
Testis, 24 h
  Concentration of radioactivity: 0.076 μg equiv/g tissue
Testis, 72 h
  Concentration of radioactivity: 0.041 μg equiv/g tissue
Thymus, 2 h
  Concentration of radioactivity: 0.331 μg equiv/g tissue
Thymus, 8 h
  Concentration of radioactivity: 0.136 μg equiv/g tissue
Thymus, 24 h
  Concentration of radioactivity: 0.078 μg equiv/g tissue
Thymus, 72 h
  Concentration of radioactivity: 0.050 μg equiv/g tissue
Thyroid, 2 h
  Concentration of radioactivity: 0.348 μg equiv/g tissue
Thyroid, 8 h
  Concentration of radioactivity: 0.157 μg equiv/g tissue
Thyroid, 24 h
  Concentration of radioactivity: 0.105 μg equiv/g tissue
Thyroid, 72 h
  Concentration of radioactivity: 0.056 μg equiv/g tissue
Urinary Bladder (contents), 2 h
  Concentration of radioactivity: 22.905 μg equiv/g tissue
Urinary Bladder (contents), 8 h
  Concentration of radioactivity: 3.544 μg equiv/g tissue
Urinary Bladder (contents), 24 h
  Concentration of radioactivity: 1.348 μg equiv/g tissue
Urinary Bladder (contents), 72 h
  Concentration of radioactivity: 0.249 μg equiv/g tissue
Urinary Bladder, 2 h
  Concentration of radioactivity: 0.474 μg equiv/g tissue
Urinary Bladder, 8 h
  Concentration of radioactivity: 0.519 μg equiv/g tissue
Urinary Bladder, 24 h
  Concentration of radioactivity: 0.253 μg equiv/g tissue
Urinary Bladder, 72 h
  Concentration of radioactivity: 0.117 μg equiv/g tissue
